Molecular target: T1, GST-UAP56 (human, UniProt Q13838)
T1 construct: UAP56 (DDX39B), ATP-dependent RNA helicase, in pGEX-4T-3; GST-UAP56 is the only UAP56 construct described; also called DDX39B; source: purified recombinant (pGEX-4T-3 construct)
Experiment: SPR; UAP56 with API5, FGF2, the API5–FGF2 complex or PBK as analyte proteins; purified recombinant proteins
Settings: both partners purified

GST-UAP56, sequence (Q13838 whole entry): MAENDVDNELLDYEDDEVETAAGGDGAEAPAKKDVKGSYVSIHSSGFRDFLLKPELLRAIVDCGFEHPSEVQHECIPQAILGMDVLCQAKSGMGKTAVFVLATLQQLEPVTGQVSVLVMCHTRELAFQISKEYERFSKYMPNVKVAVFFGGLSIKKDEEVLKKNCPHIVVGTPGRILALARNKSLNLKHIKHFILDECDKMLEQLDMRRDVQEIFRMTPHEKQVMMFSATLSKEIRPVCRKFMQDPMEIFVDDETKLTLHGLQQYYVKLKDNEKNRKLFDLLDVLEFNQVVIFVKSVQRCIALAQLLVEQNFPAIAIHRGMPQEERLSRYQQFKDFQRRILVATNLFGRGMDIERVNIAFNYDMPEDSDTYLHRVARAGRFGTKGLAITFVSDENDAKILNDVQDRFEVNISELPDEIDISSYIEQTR

Kd: 382 ± 6 nM
B1: His-FGF2, LMW FGF2 ([…], C211S/C229S) (natural protein)
chain: not shown
notes: human FGF2, low-molecular-weight isoform, […], codon-optimised synthetic gene in a modified pET-28b(+); C211S/C229S corresponds to C69S/C87S of earlier FGF2 structures; also called His-LMW FGF2; fibroblast growth factor 2; source: E. coli Rosetta2(DE3), purified (Ni-NTA, Superdex SEC)
